Data published in the supplement of paper PMC12067230.
This is a noisy data set.

Test: amyloid nucleation score relative to library mode (yeast Sup35 reporter selection) (log enrichment difference); higher = more amyloid nucleation; sequences are the first 22 residues of the Bri2 peptide extended by up to 12 random residues
Settings: random library (experiment): 1;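 active = nucleation score significantly above 0 at FDR 0.05; inactive = not significantly above 0 or absent from output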
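Note: [psi-pin-] Saccharomyces cerevisiae expressing SupN fusions, induced by 100 µM Cu2SO4, selected 7 d at 30 °C without adenine and uracil, scored by deep sequencing of output versus input.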

Amyloid nucleation score, -0.338:
EASNCFAIRHFENKFAVETLICKSRRGTAVKGKL

Amyloid nucleation score, 0.482:
EASNCFAIRHFENKFAVETLICKRYYNKVRYVTR

Amyloid nucleation score, inactive:
EASNCFAIRHFENKFAVETLICKMGNNK
EASNCFAIRHFENKFAVETLICKMGYLIGLSVCH
EASNCFAIRHFENKFAVETLICKML
EASNCFAIRHFENKFAVETLICKMQMSTIQVREL
EASNCFAIRHFENKFAVETLICKMSTWSPVSVTW
EASNCFAIRHFENKFAVETLICKMVAATRVTMSV
EASNCFAIRHFENKFAVETLICKMVGDR
EASNCFAIRHFENKFAVETLICKNCGG
EASNCFAIRHFENKFAVETLICKPGPSPTTSCGK
EASNCFAIRHFENKFAVETLICKPLSLGHVRYLG
EASNCFAIRHFENKFAVETLICKPLVTMGNTWNS
EASNCFAIRHFENKFAVETLICKPN
EASNCFAIRHFENKFAVETLICKQEGTEAVWRVS
EASNCFAIRHFENKFAVETLICKQKGGLSIVESR
EASNCFAIRHFENKFAVETLICKQLTAGWVRGVR
EASNCFAIRHFENKFAVETLICKQVCSLIICRVW
EASNCFAIRHFENKFAVETLICKQWSSTTILFVS
EASNCFAIRHFENKFAVETLICKQYDTAD
EASNCFAIRHFENKFAVETLICKRAYALRSLYVM
EASNCFAIRHFENKFAVETLICKRDAFPLCTRSE
EASNCFAIRHFENKFAVETLICKRGAKRRRSMDS
EASNCFAIRHFENKFAVETLICKRMETNLSRAEQ
EASNCFAIRHFENKFAVETLICKRMLRWNGSRWF
EASNCFAIRHFENKFAVETLICKRQGRWSWVTWG
EASNCFAIRHFENKFAVETLICKRQNGPLGVTWL
EASNCFAIRHFENKFAVETLICKRRRTLCFYSWS
EASNCFAIRHFENKFAVETLICKRVCLRCWGRKH
EASNCFAIRHFENKFAVETLICKRVSGSAIGSAR
EASNCFAIRHFENKFAVETLICKRWPQMYQVLSQ
EASNCFAIRHFENKFAVETLICKRYTLKCRQLML
EASNCFAIRHFENKFAVETLICKSGLDYAAIRLW
EASNCFAIRHFENKFAVETLICKSGNVVVWIMGF
EASNCFAIRHFENKFAVETLICKSIIAFTYAPS
EASNCFAIRHFENKFAVETLICKSLERC
EASNCFAIRHFENKFAVETLICKSLQLSWMVV
EASNCFAIRHFENKFAVETLICKSLRVRPQQAGG
EASNCFAIRHFENKFAVETLICKSPHVKLVSIRV
EASNCFAIRHFENKFAVETLICKSPMNCGVACQA
EASNCFAIRHFENKFAVETLICKSRFSARERGAA
EASNCFAIRHFENKFAVETLICKSRPLVNTVCVV
EASNCFAIRHFENKFAVETLICKSRRRWVRMGLG
EASNCFAIRHFENKFAVETLICKSTELLPTDRVG
EASNCFAIRHFENKFAVETLICKSVRVVATRVAG

Amyloid nucleation score, 0.224:
EASNCFAIRHFENKFAVETLICKPNSCRCCSGRI

Amyloid nucleation score, 0.706:
EASNCFAIRHFENKFAVETLICKSDVIDSLTCPW

Amyloid nucleation score, 1.61:
EASNCFAIRHFENKFAVETLICKSFLW

Amyloid nucleation score, 3.42:
EASNCFAIRHFENKFAVETLICKSRPCGTQLAVE

Amyloid nucleation score, -0.102:
EASNCFAIRHFENKFAVETLICKRSFDHRHLIWH

Amyloid nucleation score, 0.683:
EASNCFAIRHFENKFAVETLICKSA

Amyloid nucleation score, 0.459:
EASNCFAIRHFENKFAVETLICKR

Amyloid nucleation score, 1.8:
EASNCFAIRHFENKFAVETLICKMLNGA

Amyloid nucleation score, 0.655:
EASNCFAIRHFENKFAVETLICKMMSPQAFPVDS

Amyloid nucleation score, 4.09:
EASNCFAIRHFENKFAVETLICKMLQYIENVP

Amyloid nucleation score, 0.458:
EASNCFAIRHFENKFAVETLICKSRTSHDEVV

Amyloid nucleation score, 4.26:
EASNCFAIRHFENKFAVETLICKQVMGSWNSSKG

Same assay, conditions: random library (experiment): 2

Amyloid nucleation score, -0.0677:
EASNCFAIRHFENKFAVETLICKMWVLWKYVGTN
EASNCFAIRHFENKFAVETLICKNTSF

Amyloid nucleation score, -0.344:
EASNCFAIRHFENKFAVETLICKNTSNHIVLAGG

Amyloid nucleation score, 0.301:
EASNCFAIRHFENKFAVETLICKSQDIFWGLVIA

Amyloid nucleation score, 5.61:
EASNCFAIRHFENKFAVETLICKSNELGICAIS

Amyloid nucleation score, 6.01:
EASNCFAIRHFENKFAVETLICKPS

Amyloid nucleation score, inactive:
EASNCFAIRHFENKFAVETLICKMLHFGVFISLV
EASNCFAIRHFENKFAVETLICKMLRSLPTRSNA
EASNCFAIRHFENKFAVETLICKMQELSSLFYTL
EASNCFAIRHFENKFAVETLICKMV
EASNCFAIRHFENKFAVETLICKMYY
EASNCFAIRHFENKFAVETLICKNLKNTLCPSS
EASNCFAIRHFENKFAVETLICKNMSSLFMVKA
EASNCFAIRHFENKFAVETLICKNTAVPRKCTKD
EASNCFAIRHFENKFAVETLICKPASMVIFFFDG
EASNCFAIRHFENKFAVETLICKPHTWLLGEMVV
EASNCFAIRHFENKFAVETLICKQMN
EASNCFAIRHFENKFAVETLICKRDISNLYGFCS
EASNCFAIRHFENKFAVETLICKRGEMQWIGLVL
EASNCFAIRHFENKFAVETLICKRGLN
EASNCFAIRHFENKFAVETLICKRGYAVLGRGRW
EASNCFAIRHFENKFAVETLICKRYSSGHTSSCG
EASNCFAIRHFENKFAVETLICKSCV
EASNCFAIRHFENKFAVETLICKSEGFVSAVMFN
EASNCFAIRHFENKFAVETLICKSFKTV
EASNCFAIRHFENKFAVETLICKSGVSSLVVGCF
EASNCFAIRHFENKFAVETLICKSKFGMYVWWIG
EASNCFAIRHFENKFAVETLICKSLDDVCAVWGV
EASNCFAIRHFENKFAVETLICKSSVAFYNCIRA

Amyloid nucleation score, -0.122:
EASNCFAIRHFENKFAVETLICKRQYGSNCYSMA

Amyloid nucleation score, 0.879:
EASNCFAIRHFENKFAVETLICKMKPRYRCYVYV

Amyloid nucleation score, -0.0198:
EASNCFAIRHFENKFAVETLICKRSYVTPKNAFA

Same assay, conditions: random library (experiment): 3

Amyloid nucleation score, 0.768:
EASNCFAIRHFENKFAVETLICKRFPNRPPGYET

Amyloid nucleation score, 2.28:
EASNCFAIRHFENKFAVETLICKRYQMKFSRRWR

Amyloid nucleation score, 7.02:
EASNCFAIRHFENKFAVETLICKSLRLYAEGRSV

Amyloid nucleation score, 0.0748:
EASNCFAIRHFENKFAVETLICKPLEENVFSCWV

Amyloid nucleation score, 0.693:
EASNCFAIRHFENKFAVETLICKQLETEVVSWKV

Amyloid nucleation score, 1.3:
EASNCFAIRHFENKFAVETLICKRSLGKRRVRPG

Amyloid nucleation score, inactive:
EASNCFAIRHFENKFAVETLICKMPMFHCSVSSL
EASNCFAIRHFENKFAVETLICKMVVNSHYLLLA
EASNCFAIRHFENKFAVETLICKMWLPWPLDAMP
EASNCFAIRHFENKFAVETLICKNICYGFKLAVS
EASNCFAIRHFENKFAVETLICKPLCHYKSNR
EASNCFAIRHFENKFAVETLICKPWYVRRKRWRR
EASNCFAIRHFENKFAVETLICKQAVMELSGAG
EASNCFAIRHFENKFAVETLICKQTGLRKNFRRL
EASNCFAIRHFENKFAVETLICKQWRFGNTMIGV
EASNCFAIRHFENKFAVETLICKRAGTYDPCSMR
EASNCFAIRHFENKFAVETLICKRAYR
EASNCFAIRHFENKFAVETLICKRRVRTPLCQYW
EASNCFAIRHFENKFAVETLICKRSGWRCARVRR
EASNCFAIRHFENKFAVETLICKRSMPTQSVMEV
EASNCFAIRHFENKFAVETLICKRTASKGTPVPH
EASNCFAIRHFENKFAVETLICKSDVGSARRAAS
EASNCFAIRHFENKFAVETLICKSPSSVNTKLMC
EASNCFAIRHFENKFAVETLICKSQWQARELGVV
EASNCFAIRHFENKFAVETLICKSRLAGRVWLAL
EASNCFAIRHFENKFAVETLICKSTEMWNGIVGH

Amyloid nucleation score, 5.09:
EASNCFAIRHFENKFAVETLICKSWFTAIRYLGA

Amyloid nucleation score, 3.5:
EASNCFAIRHFENKFAVETLICKSIGGLVGQELR

Amyloid nucleation score, 0.749:
EASNCFAIRHFENKFAVETLICKQGAGVPWWKCR
